# Changes are numbered by the printed parent chain; changes in the protein carry UniProt numbers. Some of the results follow.
# B1: AAUGGUG (DNA:RNA)
# RNA: GGGAGACCGGAAUUCAGAUUGUCCAAUGGUGUUAAAUCCCGUCGUAGCCACCA
# DNA 1: CAATCTGAATTCCGGTCTCCC
# DNA 2: TGGTGGCTACGACGGGATT
# B2: CAACGAU (DNA:RNA)
# RNA: B1 RNA with A25C, U27A, G28C, U30A, G31U
# DNA 1: CAATCTGAATTCCGGTCTCCC
# DNA 2: TGGTGGCTACGACGGGATT
# B3: GCUUGCG (DNA:RNA)
# RNA: B1 RNA with A25G, A26C, G28U, U30C
# DNA 1: CAATCTGAATTCCGGTCTCCC
# DNA 2: TGGTGGCTACGACGGGATT
# B4: ACCAUGU (DNA:RNA)
# RNA: B1 RNA with A26C, U27C, G28A, G29U, U30G, G31U
# DNA 1: CAATCTGAATTCCGGTCTCCC
# DNA 2: TGGTGGCTACGACGGGATT
# B5: UCGACAC (DNA:RNA)
# RNA: GGGAGACCGGAAUUCAGAUUGUCCUCGACACUUAAAUCCCGUCGUAGCCACCA
# DNA 1: CAATCTGAATTCCGGTCTCCC
# DNA 2: TGGTGGCTACGACGGGATT
# B6: GUCCUAU (DNA:RNA)
# RNA: B5 RNA with U25G, C26U, G27C, A28C, C29U, C31U
# DNA 1: CAATCTGAATTCCGGTCTCCC
# DNA 2: TGGTGGCTACGACGGGATT
# B7: CGUAAUA (DNA:RNA)
# RNA: B1 RNA with A25C, A26G, G28A, G29A, G31A
# DNA 1: CAATCTGAATTCCGGTCTCCC
# DNA 2: TGGTGGCTACGACGGGATT
# B8: UGCCGCC (DNA:RNA)
# RNA: B5 RNA with C26G, G27C, A28C, C29G, A30C
# DNA 1: CAATCTGAATTCCGGTCTCCC
# DNA 2: TGGTGGCTACGACGGGATT
# B9: CACGCUG (DNA:RNA)
# RNA: B1 RNA with A25C, U27C, G29C
# DNA 1: CAATCTGAATTCCGGTCTCCC
# DNA 2: TGGTGGCTACGACGGGATT
# B10: UGGAUGG (DNA:RNA)
# RNA: B5 RNA with C26G, C29U, A30G, C31G
# DNA 1: CAATCTGAATTCCGGTCTCCC
# DNA 2: TGGTGGCTACGACGGGATT
# B11: CUAGCAG (DNA:RNA)
# RNA: B1 RNA with A25C, A26U, U27A, G29C, U30A
# DNA 1: CAATCTGAATTCCGGTCTCCC
# DNA 2: TGGTGGCTACGACGGGATT
# B12: CGUCGUC (DNA:RNA)
# RNA: B1 RNA with A25C, A26G, G28C, G31C
# DNA 1: CAATCTGAATTCCGGTCTCCC
# DNA 2: TGGTGGCTACGACGGGATT
# B13: AAGGGUU (DNA:RNA)
# RNA: B1 RNA with U27G, G31U
# DNA 1: CAATCTGAATTCCGGTCTCCC
# DNA 2: TGGTGGCTACGACGGGATT
# B14: CUUAACC (DNA:RNA)
# RNA: B5 RNA with U25C, C26U, G27U, C29A, A30C
# DNA 1: CAATCTGAATTCCGGTCTCCC
# DNA 2: TGGTGGCTACGACGGGATT
# B15: AUACCCA (DNA:RNA)
# RNA: B1 RNA with A26U, U27A, G28C, G29C, U30C, G31A
# DNA 1: CAATCTGAATTCCGGTCTCCC
# DNA 2: TGGTGGCTACGACGGGATT
# B16: UCGGCUC (DNA:RNA)
# RNA: B5 RNA with A28G, A30U
# DNA 1: CAATCTGAATTCCGGTCTCCC
# DNA 2: TGGTGGCTACGACGGGATT
# B17: UGCAUGA (DNA:RNA)
# RNA: B5 RNA with C26G, G27C, C29U, A30G, C31A
# DNA 1: CAATCTGAATTCCGGTCTCCC
# DNA 2: TGGTGGCTACGACGGGATT
# B18: AAGACAU (DNA:RNA)
# RNA: B5 RNA with U25A, C26A, C31U
# DNA 1: CAATCTGAATTCCGGTCTCCC
# DNA 2: TGGTGGCTACGACGGGATT
# B19: ACGAUUU (DNA:RNA)
# RNA: B5 RNA with U25A, C29U, A30U, C31U
# DNA 1: CAATCTGAATTCCGGTCTCCC
# DNA 2: TGGTGGCTACGACGGGATT
# B20: GCACUCG (DNA:RNA)
# RNA: B1 RNA with A25G, A26C, U27A, G28C, G29U, U30C
# DNA 1: CAATCTGAATTCCGGTCTCCC
# DNA 2: TGGTGGCTACGACGGGATT
# B21: CUAUUCA (DNA:RNA)
# RNA: GGGAGACCGGAAUUCAGAUUGUCCCUAUUCAUUAAAUCCCGUCGUAGCCACCA
# DNA 1: CAATCTGAATTCCGGTCTCCC
# DNA 2: TGGTGGCTACGACGGGATT
# B22: UGCGCAG (DNA:RNA)
# RNA: B5 RNA with C26G, G27C, A28G, C31G
# DNA 1: CAATCTGAATTCCGGTCTCCC
# DNA 2: TGGTGGCTACGACGGGATT
# B23: CGGAUUG (DNA:RNA)
# RNA: B1 RNA with A25C, A26G, U27G, G28A, G29U
# DNA 1: CAATCTGAATTCCGGTCTCCC
# DNA 2: TGGTGGCTACGACGGGATT
# B24: ACGCCAC (DNA:RNA)
# RNA: B5 RNA with U25A, A28C
# DNA 1: CAATCTGAATTCCGGTCTCCC
# DNA 2: TGGTGGCTACGACGGGATT
# B25: AUCCGUG (DNA:RNA)
# RNA: B1 RNA with A26U, U27C, G28C
# DNA 1: CAATCTGAATTCCGGTCTCCC
# DNA 2: TGGTGGCTACGACGGGATT
# B26: UGCUAAU (DNA:RNA)
# RNA: B5 RNA with C26G, G27C, A28U, C29A, C31U
# DNA 1: CAATCTGAATTCCGGTCTCCC
# DNA 2: TGGTGGCTACGACGGGATT
# B27: GCUUCGG (DNA:RNA)
# RNA: B1 RNA with A25G, A26C, G28U, G29C, U30G
# DNA 1: CAATCTGAATTCCGGTCTCCC
# DNA 2: TGGTGGCTACGACGGGATT
# B28: AAAACGC (DNA:RNA)
# RNA: B5 RNA with U25A, C26A, G27A, A30G
# DNA 1: CAATCTGAATTCCGGTCTCCC
# DNA 2: TGGTGGCTACGACGGGATT
# B29: GUCGGGU (DNA:RNA)
# RNA: B1 RNA with A25G, A26U, U27C, U30G, G31U
# DNA 1: CAATCTGAATTCCGGTCTCCC
# DNA 2: TGGTGGCTACGACGGGATT
# B30: GCAUCUU (DNA:RNA)
# RNA: B21 RNA with C25G, U26C, U29C, C30U, A31U
# DNA 1: CAATCTGAATTCCGGTCTCCC
# DNA 2: TGGTGGCTACGACGGGATT
# B31: UACUAGA (DNA:RNA)
# RNA: B21 RNA with C25U, U26A, A27C, U29A, C30G
# DNA 1: CAATCTGAATTCCGGTCTCCC
# DNA 2: TGGTGGCTACGACGGGATT
# Biological target: T1, RBFOX1 RRM (Homo sapiens, UniProt Q9NWB1 109-208)
# T1 sequence: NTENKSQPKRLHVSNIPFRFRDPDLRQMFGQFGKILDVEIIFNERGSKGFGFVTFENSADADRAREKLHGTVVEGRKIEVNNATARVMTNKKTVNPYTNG
# Experiment: EMSA; HiTS-Eq, 1 nM pool, 10 min; buffer printed only for the single-RNA assays: 10 mM Tris pH 7.5, 150 mM NaCl, 3.4 mM EDTA, 0.001% NP-40, 30 C
# Conditions: tags: His6 N-terminal (pET28a); label: 5' 32P
# Procedure, shortened: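 Relative association constants, normalised to the cognate motif, were derived by comparing read counts of each RNA species with those of the control reaction. The RNA sequenced was the free fraction, separated by 8% native PAGE after a 10 min equilibration in 50 µL of 1 nM 5′-radiolabelled RNA (7 randomized nucleotides) with increasing concentrations of purified wild-type or mutant RbFox RRM.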
row,Binder,binding signal
1,B1,0.0191 KA relative to UGCAUGU
2,B2,0.00177 KA relative to UGCAUGU
3,B3,0.0193 KA relative to UGCAUGU
4,B4,0.00472 KA relative to UGCAUGU
5,B5,0.00706 KA relative to UGCAUGU
6,B6,0.00778 KA relative to UGCAUGU
7,B7,0.00197 KA relative to UGCAUGU
8,B8,0.0177 KA relative to UGCAUGU
9,B9,0.00694 KA relative to UGCAUGU
10,B10,0.0304 KA relative to UGCAUGU
11,B11,0.0101 KA relative to UGCAUGU
12,B12,0.00977 KA relative to UGCAUGU
13,B13,0.0138 KA relative to UGCAUGU
14,B14,0.00103 KA relative to UGCAUGU
15,B15,0.000387 KA relative to UGCAUGU
16,B16,0.0172 KA relative to UGCAUGU

row,Binder,binding signal
1,B17,0.913 KA relative to UGCAUGU
2,B18,0.00258 KA relative to UGCAUGU
3,B19,0.00364 KA relative to UGCAUGU
4,B20,0.0122 KA relative to UGCAUGU
5,B21,0.00615 KA relative to UGCAUGU
6,B22,0.0191 KA relative to UGCAUGU
7,B23,0.0329 KA relative to UGCAUGU
8,B24,0.0026 KA relative to UGCAUGU
9,B25,0.00685 KA relative to UGCAUGU
10,B26,0.012 KA relative to UGCAUGU
11,B27,0.0114 KA relative to UGCAUGU
12,B28,0.00119 KA relative to UGCAUGU
13,B29,0.0137 KA relative to UGCAUGU
14,B30,0.0116 KA relative to UGCAUGU
15,B31,0.0112 KA relative to UGCAUGU
